Whole data set: some 110,000 compounds, median “z-score” near -0.1, cut for the highest 2% near 2. The list shows a part of the results. Active and inactive are the calls of the source.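 Rule for the calls: active = z-score in the third read window above 3 or below -3; inactive = the rest.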

For the assay, the target named is Metabotropic glutamate receptor 8 (Rattus norvegicus) (UniProt P70579). Nature of the assay: rat mGluR8 modulators via GIRK flux, primary screen, cell-based, thallium flux, HTS (AID 488969). To be noted: HEK293 rat mGluR8, GIRK (G protein-gated inwardly rectifying potassium channel) thallium flux, FluoZin2; at 10 µM; stronger effect = higher value; submaximal glutamate (EC20) added with thallium.
Chain of UniProt P70579 (P70579 whole entry, looked up): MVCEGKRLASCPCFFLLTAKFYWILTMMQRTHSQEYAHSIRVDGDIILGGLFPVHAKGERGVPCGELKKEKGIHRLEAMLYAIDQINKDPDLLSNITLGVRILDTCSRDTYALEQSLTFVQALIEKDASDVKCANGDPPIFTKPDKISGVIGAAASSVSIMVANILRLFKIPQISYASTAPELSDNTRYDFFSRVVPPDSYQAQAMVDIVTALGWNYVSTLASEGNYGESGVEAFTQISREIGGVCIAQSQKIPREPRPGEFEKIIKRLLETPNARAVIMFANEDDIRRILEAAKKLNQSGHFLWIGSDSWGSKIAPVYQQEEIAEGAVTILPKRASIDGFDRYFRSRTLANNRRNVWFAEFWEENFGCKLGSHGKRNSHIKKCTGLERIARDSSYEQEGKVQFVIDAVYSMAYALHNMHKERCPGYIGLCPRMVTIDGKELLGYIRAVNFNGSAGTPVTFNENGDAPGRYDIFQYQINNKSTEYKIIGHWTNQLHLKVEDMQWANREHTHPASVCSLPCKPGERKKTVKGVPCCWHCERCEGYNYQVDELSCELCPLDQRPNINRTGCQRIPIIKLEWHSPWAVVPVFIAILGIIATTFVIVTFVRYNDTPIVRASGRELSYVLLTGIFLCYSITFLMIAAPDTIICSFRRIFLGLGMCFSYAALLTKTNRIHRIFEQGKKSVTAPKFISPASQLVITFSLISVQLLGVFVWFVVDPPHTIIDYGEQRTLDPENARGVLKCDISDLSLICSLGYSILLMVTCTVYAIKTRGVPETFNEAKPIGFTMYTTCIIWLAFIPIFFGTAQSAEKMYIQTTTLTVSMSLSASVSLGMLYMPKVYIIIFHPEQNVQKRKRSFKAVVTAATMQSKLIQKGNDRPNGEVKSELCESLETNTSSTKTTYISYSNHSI
With `CCN(CC)CCNc1ccnc2cc(Cl)ccc12`, the z-score was 1.13.
As for `CCN(CC)C(=O)Cn1c(=O)c2ccccc2n2c(=S)sc(-c3cccc(C)c3)c12`, the figure is -0.0444; as for `CCNc1nc(NCC)n2c(SC(C)C(=O)c3ccc(C)cc3)nnc2n1` (stereo not drawn), 0.295; as for `CCC1(C)Cc2c(sc3nnn(Cc4ccccc4Cl)c(=O)c23)CO1` (stereo not drawn), -0.181.
As for `COc1ccc(OC)c(-c2nnc(-c3ccc(C)o3)o2)c1`, the figure is 0.00649; as for `Cn1c(-c2ccc3c(c2)OCO3)cnc1NCc1ccccc1`, -0.0491.
For the compound `Cc1nc2c(c3c1[nH]c1ccccc13)C(O)CC(C)(C)C2` (stereo not drawn), the z-score came out at 0.34.
As for `O=C(NCc1cccnc1)c1ccc(COc2cccc3ccccc23)o1`, the figure is 0.786; as for `O=C(Nc1cccc(F)c1)N1CC=C(c2ccc(Cl)cc2)CC1`, -0.206.
With `CCOC(=O)CSc1nc(C)c2ccccc2n1`, the z-score is -0.33.
`COc1ccc(/C=N/OCC(=O)NC(c2ccccc2)c2ccccc2)cc1OC` returned a z-score of -0.211.
In the case of `Cc1oc(C(=O)O)cc1COc1ccc2c(C)cc(=O)oc2c1` it was -0.233; in that of `CCn1nc(NC(=O)c2ccncc2)c2cc3ccc(C)cc3nc21`, -0.292.
On to `COc1cc2c(cc1OC)C(c1ccc(-c3cc(Cl)ccc3Cl)o1)=NCC2`, for which the z-score is -0.401.
`Cc1c(C(=O)NCc2cccs2)oc2ccccc12`: the z-score was -0.531.
On to `O=C(N/N=C/c1ccc2c(c1)OCO2)c1ccc(Br)o1`, for which the z-score is -0.0771.
`CCC(=O)N1CCN(c2ccc(NC(=O)c3cc4ccccc4o3)cc2)CC1` registered a z-score of -0.0586.
Consider `CCc1nn2c(=O)cc(N3CCN(c4cc(C)nc5ccccc45)CC3)nc2s1`, for which the z-score is -0.0623.
As for `N#Cc1cnc(SCC(=O)Nc2ccccc2C(F)(F)F)nc1N`, the figure is -0.266.
As for `CSC1=NCCN1C(=O)c1ccco1`, the figure is 0.435.
As for `CCOC(=O)CSc1cc(CS(=O)c2ccc(Cl)cc2)nc(-c2ccccc2)n1` (stereo not drawn), the figure is 0.0352; as for `COc1ccc(/C=N/NC(=O)CCC(=O)Nc2ccccc2)cc1OC`, 0.0251; as for `CN(C)CC(C)(C)CNC(=S)Nc1ccc(S(=O)(=O)N2CCOCC2)cc1`, 0.179.
`CC(Oc1ccc(Cl)cc1Cl)C(=O)NCCCN1CCOCC1` (stereo not drawn) registered a z-score of -0.388.
As for `COc1ccnc(Oc2ccc3ccccc3c2)c1C#N`, the figure is 0.0286; as for `Cc1noc(C)c1CN1C(=O)NC2(CCCCCCC2)C1=O`, -0.258; as for `O=C1c2cc(N3CCCC3)c([N+](=O)[O-])cc2C(=O)N1c1ccccc1`, -0.0728.
In the case of `CCOc1ccc(C(=O)C[n+]2ccccc2C)cc1` it was -0.0739; in that of `O=C(N1CCOCC1)N1CCN(S(=O)(=O)N2CCCCC2)CC1`, 0.052; in that of `Cn1cc(S(=O)(=O)N2CCN(c3ccccc3)CC2)c(=O)n(C)c1=O`, -0.251.
`O=c1ncn(-c2cccc(F)c2)c2ncccc12` yielded a z-score of -0.0987.
As for `O=C(Nc1ccc(Br)cc1)c1cccn1-c1ncc(C(F)(F)F)cc1Cl`, the figure is -0.397; as for `CCOc1ccc(C(=O)NC(=S)Nc2ccc(NC(=O)c3ccco3)cc2)cc1[N+](=O)[O-]`, 0.282.
On to `COc1ccc(C(CC(=O)NCc2ccco2)c2ccc(F)cc2)cc1` (stereo not drawn), for which the z-score is -0.992.
In the case of `COc1ccc(C(=O)N/N=C(\C)Cn2nc([N+](=O)[O-])cc2C)cc1` it was -0.183; in that of `O=C(Cn1cnc2ccccc2c1=O)Nc1cccc(-c2nnc3n2CCCCC3)c1`, -1.38.
In the case of `O=C(CSc1nc2ccccc2c(=O)n1-c1ccc(Cl)cc1)N/N=C/C=C/c1ccccc1[N+](=O)[O-]` it was -0.132; in that of `CCCc1c(C)c2c(C)[nH]nc2oc1=O`, -0.229.
`CC(C)c1ccccc1NC(=O)COC(=O)Cc1c[nH]c2ccccc12` displayed a z-score of 0.295.
`N#CCCN1CCN(C(=S)c2ccc(-c3cccc(Cl)c3)o2)CC1` returned a z-score of -0.185.
In the case of `N#C/C(C(=O)NCc1ccccc1)=C1/N=C(NC(=O)c2cccs2)c2ccccc21` it was 0.0706.
With `C=CCn1c(SCC(=O)NC)nc2sc3c(c2c1=O)CCC3`, the z-score is -0.523.
Regarding `NCC(c1ccccc1)(c1ccccc1)c1ccccc1`, the z-score is -0.398.
As for `N#Cc1ccc(N2C(=O)[C@@H]3C(C(=O)c4ccc5ccccc5n4)=NN[C@@H]3C2=O)cc1`, the figure is -0.208; as for `C=CCc1ccc(OCCOCCNCCOC)c(OC)c1`, 0.267.
With `Cc1cccc(NC(=O)C2CC(=O)NC(Nc3nc4ccccc4s3)=N2)c1` (stereo not drawn), the z-score stood at 0.371.
As for `O=S(=O)(Nc1nc2ccccc2nc1N1CCc2ccccc2C1)c1ccc(Cl)cc1`, the figure is 0.0945.
As for `COC(=O)CSc1nc(C(C)C)nc2ccccc12`, the figure is -0.577; as for `CC(=O)N1c2ccc3ccccc3c2C(C)CC12CCCCC2` (stereo not drawn), 1.11; as for `CCc1c(C)[nH]c2c(C)cccc2c1=O`, -0.337.
In the case of `CCN(CC)C(=O)c1sc(NC(=O)c2ccc3c(c2)OCO3)c(C#N)c1C` it was 0.387; in that of `CCOC(=O)C1CCCN(c2c(N3CCc4ccccc4C3)c(=O)c2=O)C1` (stereo not drawn), -0.242; in that of `Cc1ccccc1N=Cc1cc2c(cc1[N+](=O)[O-])OCO2`, -0.121.
Take `CCCCOc1ccc(OC(=O)c2cccnc2)cc1`: the z-score is -0.235.
Compound `COc1ccc(C)cc1N(C(=O)c1cccc(F)c1)c1nc2ccccc2s1` yielded a z-score of -0.071.
`CS(=O)(=O)N1CCN(c2ccccc2NC(=O)Cc2ccc(Cl)cc2)CC1` came in with a z-score of -0.7.
As for `COc1ccccc1Nc1nc(=O)[nH]nc1C`, the figure is 0.343.
In turn, `CCn1c(SCC(=O)Nc2nccs2)nnc1-c1ccccc1` gave a z-score of 0.00786.
In turn, `CCN(Cc1ccccc1)CC(O)COc1ccccc1` (stereo not drawn) came in with a z-score of 0.411.
As for `CCOC(=O)CSc1nc2cc(C)ccc2cc1C#N`, the figure is -0.369; as for `COc1ccc2sc(SCCCS(=O)(=O)O)[n+](CCCS(=O)(=O)[O-])c2c1`, -0.199; as for `CC1Cc2ccccc2N1C(=O)CSc1nnnn1C(C)C` (stereo not drawn), -0.364.
As for `CCOC(=O)c1sc(NC(=O)C(C)(C)C)cc1C`, the figure is 0.0836; as for `CCCCCOc1ccc(C(=O)NC(CCC)C(=O)O)cc1` (stereo not drawn), -0.208.
As for `COc1ccccc1NC(=O)N1CCc2[nH]c3ccc(F)cc3c2C1`, the figure is 1.22.
`COc1cccc(CNCCO)c1OCc1ccccc1Cl`: the z-score was -0.209.
In the case of `Cc1ccc(C)c(N2CCN(C(=O)C3CCN(c4nc(C)cc(C)n4)CC3)CC2)c1` it was -0.495; in that of `Cc1ccnc(NC(=O)CCC(=O)N(CC(=O)NCc2ccccc2)c2ccc3c(c2)OCO3)c1`, -0.744; in that of `Cc1ccc(-n2nc(CC#N)c(C#N)c2N)cc1`, -0.271.
In the case of `CC1=C(C(=O)OCC(C)C)C(c2ccsc2)NC(=O)N1` (stereo not drawn) it was -0.356; in that of `O=[N+]([O-])c1ccc(/C=C2\CCC(C3=CCCC3)=C2N2CCOCC2)cc1`, 0.183.
In the case of `COC(=O)c1cc(CSc2nc3ccc(C)cc3[nH]2)oc1C`, the z-score was active: -4.79.
Regarding `CSc1nsc(SCc2ccc(F)cc2)n1`, the z-score was -0.401.
For `COc1ccc(CN(C(=O)c2ccco2)c2ccc(Br)cc2)cc1OC`, the z-score was -0.544.
As for `Cn1cccc1Cc1nnc(SCC(=O)Nc2ccccc2F)n1CCc1ccccc1`, the figure is -0.478.
In the case of `O=C(/C=C/Sc1ccccc1)c1ccc(Cl)cc1` it was 0.341; in that of `Cc1ccccc1NC(=S)NC(=O)c1cncc(Br)c1`, active: 6.92.
In the case of `CCOC(=O)NCc1ccc(S(=O)(=O)Nc2ccc(C)cc2)cc1` it was 0.21; in that of `CCCCN1C(=O)C(O)(CC(=O)c2c(C)n[nH]c2C)c2cc(Br)ccc21` (stereo not drawn), -0.247.
The compound `CC(C)N(C(=O)Cn1cnc2c(cnn2-c2ccccc2Cl)c1=O)C(C)C` showed a z-score of 0.0448.
Compound `CCSc1ccccc1C(=O)N1CCN(Cc2ccc3c(c2)OCO3)CC1` came in with a z-score of 0.179.
`C#CCN1C(=O)S/C(=C/C=C/c2ccc(N(C)C)cc2)C1=O` showed a z-score of -0.129.
As for `CCSc1ccccc1C(=O)Nc1cccc(OC)c1`, the figure is -0.621.
In the case of `COc1cc(/C=N/N=C2/NC(=O)C(CC(=O)O)S2)ccc1OCc1ccc(Cl)cc1` (stereo not drawn) it was -0.357; in that of `Cc1cc(Cl)c(S(=O)(=O)N2CCSCC2)cc1OCC(N)=O`, 0.0251.
As for `COC(=O)C1CSC(C(=O)OC)N1C(=O)Nc1ccccc1` (stereo not drawn), the figure is -0.135.
For the compound `Cc1ccc(N(C(=O)c2csnn2)C(C(=O)NC(C)(C)C)c2cccs2)cc1` (stereo not drawn), the z-score was determined as 0.462.
In the case of `Cc1cc(Cl)ccc1OC(C)C(=O)Nc1ccc(S(=O)(=O)Nc2cnc3ccccc3n2)cc1` (stereo not drawn) it was -2.58.
As for `CC(=O)N(/N=C1\Sc2ccccc2C1=O)c1ccc(C)cc1C`, the figure is -0.638; as for `CS(=O)(=O)N(CC(=O)NCc1ccco1)c1ccccc1Cl`, -0.137.
As for `CCCn1c(=O)c(C(=O)c2ccccc2)nc2ccccc21`, the figure is -0.131.
`COCc1cc(CN2CCN(C)CC2)c(O)c2ncccc12`: the z-score was -0.478.
For the compound `C=CCn1c(CSc2nc3ccccc3s2)nnc1SCC(=O)NCc1cccnc1`, the z-score is -0.118.
For `O=C(NCCCNC1CCCCC1)c1ccc(/C=N/O)nc1`, the z-score is -0.314.
In the case of `CCOc1ccc(N2CC(=O)SC2=S)cc1` it was 0.81.
`Cc1cccc(-n2nnc(C(=O)NCc3ccccc3)c2N)c1` came in with a z-score of -0.985.
In the case of `COC(=O)c1ccccc1NC(=O)CSc1nnc(Cc2ccc(Cl)cc2)o1` it was -0.323; in that of `CCC(CC)C(=O)Nc1c(C)n(C)n(-c2ccccc2)c1=O`, 0.0217.
Compound `Cc1c(NC(=O)c2ccc(F)c(S(=O)(=O)N3CCOCC3)c2)c(=O)n(-c2ccccc2)n1C` registered a z-score of -0.691.
Take `COc1ccc2c(c1OC)C(=O)N1N=C(c3ccc(O)cc3)CC21` (stereo not drawn): the z-score is -0.236.
In the case of `COc1cc(OC)c(OC)cc1/C=C/C(=O)c1ccc(NS(=O)(=O)c2ccc(C)cc2)cc1` it was 0.146; in that of `O=C(CCC(=O)c1ccc(Oc2ccccc2)cc1)Nc1ccc(Cl)cc1Cl`, 0.0353; in that of `Cc1ccc(S(=O)(=O)Nc2ccc3nc(C)sc3c2)cc1`, -0.613.
For the compound `CC(=O)c1cccc(NC(=O)Nc2ccc(C(=O)N3CCOCC3)cc2)c1`, the z-score came to 0.0588.
Regarding `CN1C(=O)C2(Oc3ccccc3C3CC(c4ccccc4)=NN32)c2ccccc21` (stereo not drawn), the z-score worked out at 0.0396.
Consider `O=C(NC(c1ccccc1)C(Cl)Cl)c1ccccc1` (stereo not drawn), for which the z-score was -0.428.
The compound `CC(C)(C)C(=O)Nc1ccc(-c2cn3ccsc3n2)cc1` yielded a z-score of -1.44.
In the case of `O=C(/C=C(\c1ccc(Cl)cc1)n1cncn1)c1ccc(Cl)cc1` it was 0.0724; in that of `O=C(Cn1cnc2ccccc2c1=O)N1CCN(Cc2ccc3c(c2)OCO3)CC1`, 0.143.
In the case of `COc1ccc2c(c1OC)C(=O)N1c3ccccc3SC21` (stereo not drawn) it was 0.0179.
In the case of `O=C(NC1CCc2ccccc21)C1CCN(S(=O)(=O)c2ccc(Cl)cc2)CC1` (stereo not drawn) it was 2.31; in that of `COc1ccc2c(CC(=O)NCc3ccc4c(c3)OCO4)coc2c1`, -0.144.
As for `CCOC(=O)c1ccccc1NC(=O)CSc1nnc(Cc2cccn2C)n1-c1ccc(F)cc1`, the z-score is -1.63.

The values above are taken from PubChem BioAssay AID488969 (Vanderbilt High Throughput Screening Facility, 2010).
